# Reference: publication PMC4336329 (PLoS ONE, 2015)
# The campaign covered roughly 310,000 compounds. About 2,200 (0.71%) showed an effect of 50% or more. Effects have a minus sign here. The list shows a part of the results.
# Target: human ether-à-go-go-related gene (hERG) potassium channel (human, UniProt Q12809)
# Assay: primary screen, population patch clamp on CHO cells stably expressing hERG
# Chain of human ether-à-go-go-related gene (hERG) potassium channel (Q12809 whole entry, looked up): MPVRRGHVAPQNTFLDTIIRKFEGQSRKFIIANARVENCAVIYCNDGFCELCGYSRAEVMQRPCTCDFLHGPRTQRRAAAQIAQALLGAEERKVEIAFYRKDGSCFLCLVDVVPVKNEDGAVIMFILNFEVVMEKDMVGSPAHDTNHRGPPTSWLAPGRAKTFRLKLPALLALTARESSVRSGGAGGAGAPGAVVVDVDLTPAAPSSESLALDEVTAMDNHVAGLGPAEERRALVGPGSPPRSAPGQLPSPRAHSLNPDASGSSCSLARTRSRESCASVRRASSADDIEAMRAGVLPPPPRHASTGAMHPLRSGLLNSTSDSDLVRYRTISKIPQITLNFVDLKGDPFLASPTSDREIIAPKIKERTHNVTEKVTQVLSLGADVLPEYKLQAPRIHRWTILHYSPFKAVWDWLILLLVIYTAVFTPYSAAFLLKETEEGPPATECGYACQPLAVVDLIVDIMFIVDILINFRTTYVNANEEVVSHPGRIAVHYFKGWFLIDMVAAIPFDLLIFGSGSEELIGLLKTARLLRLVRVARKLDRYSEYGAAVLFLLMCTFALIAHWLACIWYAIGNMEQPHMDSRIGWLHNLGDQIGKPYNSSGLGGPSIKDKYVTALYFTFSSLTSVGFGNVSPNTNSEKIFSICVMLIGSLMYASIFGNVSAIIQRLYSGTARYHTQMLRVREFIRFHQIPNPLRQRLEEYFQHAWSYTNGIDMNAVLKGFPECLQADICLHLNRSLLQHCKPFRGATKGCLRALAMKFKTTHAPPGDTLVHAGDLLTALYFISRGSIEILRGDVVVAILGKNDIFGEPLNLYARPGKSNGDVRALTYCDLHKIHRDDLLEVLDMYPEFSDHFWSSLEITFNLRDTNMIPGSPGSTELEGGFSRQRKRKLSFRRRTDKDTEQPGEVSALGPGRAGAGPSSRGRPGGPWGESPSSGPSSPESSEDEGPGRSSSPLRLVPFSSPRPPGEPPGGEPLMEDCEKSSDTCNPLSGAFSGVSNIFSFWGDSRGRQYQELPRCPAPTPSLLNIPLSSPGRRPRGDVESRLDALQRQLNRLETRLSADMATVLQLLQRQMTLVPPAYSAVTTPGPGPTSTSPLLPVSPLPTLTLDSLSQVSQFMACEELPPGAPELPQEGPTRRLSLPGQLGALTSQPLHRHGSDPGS
row,SMILES,"hERG current change (%, negative = inhibition) at 1uM [%]"
1,O=C(NC1CCCCC1)NC1CC2CCC(C1)N2C(=O)NCc1ccccc1 (stereo not drawn),13.8
2,O=C(Nc1ccccc1)OCc1cc(-c2ccc(Cl)cc2)on1,17.9
3,CCOC(=O)C1=C(CNCc2ccc(C)cc2)NC(=O)NC1c1ccc(OC)cc1 (stereo not drawn),0.903
4,CCOC(=O)OC(C)OC(=O)[C@@H]1N2C(=O)[C@@H](NC(=O)[C@H](N)c3ccccc3)[C@H]2SC1(C)C.Cl (stereo partly drawn),13.2
5,O=C(CSc1nc(=O)n2ccccc2n1)NCCc1ccccc1,6.53
6,NC(=O)CSc1nnc(-c2cccs2)n1-c1ccccc1,15.3
7,COc1ccc(C(=O)NCCc2ccc(C)cc2)cc1OC1CCN(C(C)=O)CC1,9.4
8,O=c1[nH]c(O)c(N=Nc2ccc3c(c2)OCCO3)c(=O)[nH]1,15.6
9,COCCn1c(C)cc(C(=O)CSc2nc(C)cc(C)c2C#N)c1C,7.02
10,CCCCS(=O)(=O)N1CCCC(C(=O)N2CCOCC2)C1 (stereo not drawn),13.5
11,Cc1ccc(SCC(=O)N2CCCC2)cc1,-7.53
12,O=C(CSc1nnc(-c2ccccn2)n1Cc1ccccc1)Nc1ccc2c(c1)OCO2,7.03
13,FC(F)(F)c1ccccc1NC(=S)Nc1ccccc1,14.5
14,CCOc1ccc(OCCC(=O)OCC(=O)NCc2ccccc2)cc1,11.1
15,CC(C)(C)OC(=O)N1Cc2ccccc2C[C@H]1C(=O)NCC(=O)NCC1CCCO1 (stereo partly drawn),9.77
16,O=C(COc1cccc2cccnc12)Nc1ccccc1N1CCOCC1,-10.4
17,CN1CCC(N(C)C(=S)NC(=O)c2cc(-c3cccc(Br)c3)nc3ccccc23)CC1,16.5
18,CC(C)C(=O)Nc1ccc(Cc2ccc(NC(=O)C(C)C)c(O)c2)cc1O,4.54
19,COc1ccc(CNC(=O)CN2C(=O)NC(C)(c3cccc4ccccc34)C2=O)cc1OC (stereo not drawn),13.6
20,Cc1ccc(S(=O)(=O)N2CCOCC2)cc1NC(=O)C(c1ccc(Cl)cc1)C(C)C (stereo not drawn),15
21,Cc1cccnc1NC(=O)c1cccc(S(=O)(=O)N2CCN(c3ccc(F)cc3)CC2)c1,7.08
22,Cc1ccc(C)c(OCC(=O)NCC(C)C)c1C,8.82
23,CCOC(=O)N1CCN(CC(O)COCc2ccc(OC)c(OC)c2)CC1.Cl (stereo not drawn),14.7

row,SMILES,"hERG current change (%, negative = inhibition) at 1uM [%]"
1,CCOC(=O)N1CCN(C(=O)CN(c2ccc(Cl)c(C(F)(F)F)c2)S(C)(=O)=O)CC1,-3.38
2,CCCCN(C(=O)c1c(CC)noc1C)c1c(N)n(CCC)c(=O)[nH]c1=O,8.72
3,C=CCNc1nc(Cl)nc(Nc2ccccc2)n1,9.97
4,c1ccc(CSc2n[nH]c(-c3ccco3)n2)cc1,8.18
5,CC(OC(=O)c1nc(Cl)ccc1Cl)C(=O)c1ccccc1 (stereo not drawn),8.95
6,CCOCCCn1c(=S)[nH]c2cc(C(=O)N3CCC(C(N)=O)CC3)ccc2c1=O,-3.34
7,CS(=O)(=O)N1Cc2ccccc2CC1C(=O)O (stereo not drawn),11.1
8,CCOC(=O)C1(CCOc2ccccc2)CCN(Cc2ccc(OCC)c(CO)c2)CC1,-82.4
9,CCNC(=O)NC(=O)C(C)OC(=O)CCS(=O)(=O)c1ccc(C)cc1 (stereo not drawn),13.9
10,CCOc1ccc(S(=O)(=O)NN)cc1,15.1
11,CCN1CCN(C(CNC(=O)c2ccc3c(c2)OCO3)c2cccnc2)CC1 (stereo not drawn),-3.31
12,C=CCn1c(SCCC(=O)O)nc2c1c(=O)n(C)c(=O)n2C,22
13,CSc1ncccc1C(=O)Nc1ccc(F)c(F)c1F,11.6
14,O=C(CSc1nnc2ccc(-c3ccc(Br)cc3)nn12)NCC1CCCO1 (stereo not drawn),11.2
15,CC(C)OC(=O)CSc1nc2ncc(Cl)cc2[nH]1,16
16,CCCn1c(=O)c(C(=O)NNS(=O)(=O)c2ccc(C)cc2)c(O)c2ccccc21,9.73
17,CCOC(=O)NNC(=O)CCn1c2c(c3ccccc31)CCCC2,6.89
18,COc1ccc(OCC(=O)NNC(=O)C(=O)N2CCCC2)cc1,2.07
19,COc1ccc(-c2noc3c2-c2nc(-c4ccccc4)sc2CC3)cc1,10.3
20,O=C(Oc1cc(Cl)cc(Cl)c1)c1cnc2n(c1=O)CCS2,11.3
21,Cc1ccc(S(=O)(=O)N2CCSC2C(=O)O)cc1 (stereo not drawn),7.63
22,Cc1cccc(-n2nc([N+](=O)[O-])c(N3CCN(C(=O)c4ccco4)CC3)[n+]2[O-])c1,-26.4
23,COC(=O)c1ccc(CSc2n[nH]c(=S)s2)o1,11.5

row,SMILES,"hERG current change (%, negative = inhibition) at 1uM [%]"
1,COCC(C)n1c(C)cc(C(=O)COC(=O)CN=C2NS(=O)(=O)c3ccccc32)c1C (stereo not drawn),16.7
2,Cc1ccc(CNC(=O)CCC(=O)Nc2nnc(C)s2)cc1,10.9
3,CC(=O)c1ccc(NC(=O)C[n+]2ccc(N(C)C)cc2)cc1.[Cl-],8.13
4,Cc1cccc(OCC(=O)Nc2ccccc2N2CCN(C)CC2)c1,2.08
5,COCCCNC(=O)CN1C(=O)c2cccc3cccc1c23,12.2
6,Cc1noc(C)c1COc1cccc(C(=O)Nc2ccc3c(c2)OCO3)c1,12.7
7,COc1ccc(-c2noc(CCC(=O)NC3CCN(Cc4ccccc4)CC3)n2)cc1,-5.69
8,O=c1[nH]c(=S)n(Cc2ccc(F)cc2)c(O)c1C=NCC1CCCO1 (stereo not drawn),-46.4
9,O=C(NCC1CCCO1)C(=O)NCC(c1ccco1)N1CCN(c2ccccc2)CC1 (stereo not drawn),4.23
10,CCCC1(C(=O)OCC)NC(c2ccc(N(C)C)cc2)C2C(=O)N(c3ccc(F)cc3)C(=O)C21 (stereo not drawn),16.7
11,CCN(C(=O)CSc1ncnc2sccc12)c1c(N)n(Cc2ccccc2)c(=O)[nH]c1=O,6.3
12,CCC(C)/C(C)=N/NC(=O)c1ccc(COc2ccc(Cl)c(C)c2)cc1 (stereo not drawn),1.67
13,COC(=NC1CCCC1)C(O)c1c[nH]c2ccccc12 (stereo not drawn),6.77
14,CCN(C1=NS(=O)(=O)c2ccccc21)N(CC)S(=O)(=O)c1ccc(C)cc1,14.8
15,N#Cc1ccsc1NC(=O)CN1CCCCCC1,-4.08
16,CCCCCCSc1ccc([C@H]2N[C@@](Cc3ccccc3)(C(=O)OC)[C@H]3C(=O)N(C)C(=O)[C@@H]23)cc1OC.O=C(O)C(F)(F)F,10.6
17,CCCCN1C(=O)C2(OCCCO2)c2cccc(C)c21,11.7
18,CC(C)(C)c1ccc(OCCCC(=O)NC2=NCCS2)cc1,11.4
19,CN(CC(=O)Nc1ccc(F)cc1)C(=O)Cn1c(=O)oc2ccccc21,3.7
20,COCC(=O)Nc1cc(C(=O)NCCc2ccccc2)ccc1Cl,7.95
21,COc1ccc(C(CC(=O)Nc2ccc(Cl)cc2F)NC(=O)C(F)(F)F)cc1 (stereo not drawn),13.5
22,COc1ccc(N(CC(=O)O)S(=O)(=O)c2c(C)n[nH]c2C)cc1,3.23
23,COC(=O)[C@@H]1CCCN1Cc1nc(Cc2ccc(OC)c(OC)c2)no1,8.73

row,SMILES,"hERG current change (%, negative = inhibition) at 1uM [%]"
1,CCN(CC)CCNC(=O)C1(O)c2cc(Br)ccc2NC(=O)N1c1cccc(OC)c1 (stereo not drawn),16.3
2,Oc1cccc2ccc(/C=C/c3cccs3)nc12,-13.9
3,O=C(N/N=C/c1cc2c(cc1Br)OCO2)c1cc2ccccc2o1,14.9
4,Cl.NC(=NC1CCCCC1)c1ccc(Cl)cc1,2.36
5,O=C(Cc1nc2ccccc2[nH]1)N/N=C/c1ccccc1,12.4
6,CCOC(=O)Cn1nnc(-c2ccc(S(C)(=O)=O)cc2)n1,21.1
7,COc1ccc(C(=O)Nc2cccc([N+](=O)[O-])c2)cc1Br,1.04
8,Clc1ccc(-c2noc(COc3ccccc3)n2)cc1,10.4
9,COc1ccc(OCC(=O)NNC(=O)c2cc3ccccc3o2)cc1,5.62
10,COc1cc2c(C(=O)N3CCN(C)CC3)c(C)n(C)c2cc1Br,-4.09
11,Cc1ccc(/C=C/C(=O)OC(C)C(=O)NC2CCCCC2C)o1 (stereo not drawn),-1.79
12,CCOc1ccccc1N1CCN(S(=O)(=O)c2cccs2)CC1,10.9
13,CN(C)C(=O)CN1CCN(Cc2nc(CC3CC3)no2)CC1,7.17
14,Clc1ccc(-c2cn(-c3ccccc3)c3[n+]2CCS3)cc1.[Br-],-17.9
15,N[C@@H](Cc1cc(Br)c(O)c(Br)c1)C(=O)O,8.45
16,COc1ccccc1NS(=O)(=O)c1cccc(C(=O)N/N=C/c2cn(-c3ccccc3)nc2-c2ccccc2)c1,-15.7
17,CC1(C)Cc2ccccc2C(N)=C1C#N,-3.82
18,COc1cc(NC(=O)Cn2c(-c3cncs3)nc3ccccc32)cc(OC)c1OC,4.74
19,Cc1cc(C)c(OCCOCCN2CCNCC2)c(C)c1.O=C(O)C(=O)O,13.4
20,Cc1ccccc1S(=O)(=O)Nc1ncc(C(F)(F)F)cc1Cl,20.1
21,NC(=O)Cn1cnc2nc3n(c2c1=O)CCC3,-2.24
